We go through 30 compounds from PubChem BioAssay AID488969 (Vanderbilt High Throughput Screening Facility, 2010).

The full ranking holds about 110,000 compounds; the median of “z-score” is about -0.1, and the highest 2% start at about 2. Some of the results follow.

The assay addresses Metabotropic glutamate receptor 8 (Rattus norvegicus) (UniProt P70579). The assay can be described thus: rat mGluR8 modulators via GIRK flux, primary screen, cell-based, thallium flux, HTS (AID 488969). Particulars: HEK293 rat mGluR8, GIRK (G protein-gated inwardly rectifying potassium channel) thallium flux, FluoZin2; at 10 µM; stronger effect = higher value; submaximal glutamate (EC20) added with thallium.
UniProt P70579, sequence (P70579 whole entry, looked up): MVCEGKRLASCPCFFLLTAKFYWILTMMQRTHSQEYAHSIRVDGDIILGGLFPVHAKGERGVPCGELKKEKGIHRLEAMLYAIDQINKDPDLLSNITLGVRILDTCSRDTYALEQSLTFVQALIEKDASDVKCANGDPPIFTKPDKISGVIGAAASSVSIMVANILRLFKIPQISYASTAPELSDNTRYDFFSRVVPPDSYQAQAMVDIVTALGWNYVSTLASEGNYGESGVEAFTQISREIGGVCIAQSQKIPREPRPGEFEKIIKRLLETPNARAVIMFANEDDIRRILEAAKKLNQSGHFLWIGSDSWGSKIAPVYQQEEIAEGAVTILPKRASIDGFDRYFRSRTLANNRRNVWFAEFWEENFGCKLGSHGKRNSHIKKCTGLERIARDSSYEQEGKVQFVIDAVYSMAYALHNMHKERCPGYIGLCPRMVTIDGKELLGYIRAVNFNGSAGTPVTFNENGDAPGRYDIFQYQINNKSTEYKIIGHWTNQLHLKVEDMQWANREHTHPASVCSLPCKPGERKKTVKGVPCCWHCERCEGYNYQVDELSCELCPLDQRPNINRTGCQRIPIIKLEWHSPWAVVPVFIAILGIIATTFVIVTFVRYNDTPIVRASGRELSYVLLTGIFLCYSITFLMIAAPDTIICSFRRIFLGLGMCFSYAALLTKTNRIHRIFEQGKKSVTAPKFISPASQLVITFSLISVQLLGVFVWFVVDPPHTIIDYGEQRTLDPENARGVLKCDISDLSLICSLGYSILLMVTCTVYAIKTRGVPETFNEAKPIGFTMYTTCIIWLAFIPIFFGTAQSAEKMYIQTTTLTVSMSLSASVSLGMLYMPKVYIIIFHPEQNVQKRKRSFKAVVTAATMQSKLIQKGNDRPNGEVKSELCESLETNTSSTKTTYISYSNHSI
With `COc1cc2c(cc1NC(=O)CSc1nc3cc(Cl)ccc3s1)oc1ccccc12`, the z-score was -0.383.

`Cc1ccccc1OCC(=O)NNC(=S)NC(=O)c1ccccc1[N+](=O)[O-]` had a z-score of -0.148.

The compound `CC(C)c1nnc(NC(=O)CCC(=O)NCc2cccs2)s1` returned a z-score of -0.0359.

Take `CCOc1ccc(CNC(=O)NS(=O)(=O)c2ccc(OC)cc2)cc1`: the z-score came out at 0.511.

`O=C(NNC(=S)NC(=O)c1cccs1)c1ccc(NC(=O)c2ccccc2)cc1` displayed a z-score of -0.0903.

Compound `CCOC(=O)C1=NN(c2ccc(OC)cc2)C(c2ccccc2)CC1=O` (stereo not given) gave a z-score of -2.34.

Regarding `Cc1ccc(CNc2nc(C)nc3sc4c(c23)CCC4)cc1`, the z-score is 0.156.

Take `CCOC(=O)CSc1nnc(-c2ccc(OC)cc2OC)o1`: the z-score was 0.342.

With `CNc1sc(C(=O)c2ccc(F)cc2)c(N)c1-c1nc2ccccc2s1`, the z-score is 0.1.

In turn, `CN(Cc1ccccc1)S(=O)(=O)c1ccc(NS(C)(=O)=O)cc1` registered a z-score of 0.806.

`O=S(=O)(c1ccccc1)c1cnc(-c2cccnc2)nc1-c1ccccc1` registered a z-score of 0.0723.

`CCNC(=S)NNC(=O)Nc1ccccc1`: the z-score was -0.442.

In turn, `CCc1nnc(NS(=O)(=O)c2ccc(N=Cc3c(C)[nH]n(-c4ccc(C)cc4)c3=O)cc2)s1` yielded a z-score of -0.494.

Turning to `CCOC(=O)Cc1csc(NS(C)(=O)=O)n1`, the z-score was -0.052.

In turn, `CCOC(=O)c1[nH]c2ccccc2c1NC(=O)CN(C)C` showed a z-score of 0.0703.

`O=C(CNC(=O)c1ccccc1)NC1(C(=O)NC2CCCC2)CCCCC1` had a z-score of 0.0493.

Compound `Cc1ccc(N2CCCn3c2cc(C)c(C#N)c3=O)cc1C` showed a z-score of -2.07.

`Cc1ccc(CSC2=Nc3ccccc3C3=NC(CC(=O)NCc4ccco4)C(=O)N23)cc1` (stereo not given): the z-score was -0.0671.

The compound `COc1ccc(Cl)cc1NC(=O)CN(c1ccccc1)S(=O)(=O)N(C)C` returned a z-score of -0.969.

`COc1ccc(NC(=O)c2ccc3nc(-c4ccccc4)c(-c4ccccc4)nc3c2)c(OC)c1` yielded a z-score of -0.218.

Compound `Cc1cccc(/C=N\Nc2cn[nH]c(=O)c2Cl)c1` had a z-score of -0.328.

Regarding `CCSc1ncc(/C=N/Nc2ccc(Cl)cc2)n1C`, the z-score is -0.2.

Turning to `COc1ccc(C(=O)NCC(=O)OCC(=O)Nc2c(C)n(C)n(-c3ccccc3)c2=O)cc1`, the z-score was 0.287.

Compound `Cc1ccnc(SCCn2c(N3CCCCC3)nc3c2c(=O)[nH]c(=O)n3C)n1` showed a z-score of -0.0599.

The compound `COc1cccc(/C=N/NC(=O)CSc2nnc(C)n2-c2ccccc2)c1O` returned a z-score of -0.123.

On to `Cc1ccc(NCN2C(=O)C(=O)c3ccccc32)nc1`, for which the z-score is -0.275.

Regarding `O=C1/C(=C\c2ccc(-c3ccccc3[N+](=O)[O-])o2)C(c2ccccc2)=NN1c1ccccc1`, the z-score came out at 0.149.

In turn, `COc1ccc(OC)c(C2SCCN2S(C)(=O)=O)c1` (stereo not given) showed a z-score of 0.0293.

For `CSc1cccc(NC(=O)c2cnccn2)c1`, the z-score was -0.00885.

Compound `COc1ccc(C(=O)Nc2cc(C)ccc2NC(=O)COc2ccccc2)cc1` displayed a z-score of 0.2.
